± gives the standard deviation of the averaged measurements. Over roughly 4,100 sequences, “relative kcat/Km (krel) vs genomic leader AAAGAU” has its median near 1.7; the highest 2% begin near 6.5. The list shows a part of the results, in another mix than the full data.
Molecular target: T1, E. coli RNase P holoenzyme (M1 P RNA + rnpA protein) (UniProt P0A7Y8)
T1 sequence: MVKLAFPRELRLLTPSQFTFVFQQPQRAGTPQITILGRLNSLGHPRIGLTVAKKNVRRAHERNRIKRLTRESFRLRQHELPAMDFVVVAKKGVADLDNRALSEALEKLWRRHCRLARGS
Assay: relative kcat/Km (krel) vs genomic leader AAAGAU (relative (reference leader = 1)); higher = faster RNase P cleavage
Description: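 HTS-Kin: a pool of ptRNA-Met (21C construct) with all 4096 combinations of 5' leader nucleotides N(-6) to N(-1) was processed in vitro by E. coli RNase P (P RNA + rnpA/C5 protein) under multiple-turnover conditions at 37 C, pH 8, 17.5 mM MgCl2. Residual substrate was Illumina-sequenced at several fractions reacted, and relative kcat/Km (krel) was computed by internal competition kinetics, calibrated to the genomic leader (AAAGAU = 1). The listed hexamer is the varied N(-6)..N(-1) leader (DNA letters), and it sits between a fixed 5' stem-loop flank (GCAUGCACGAAAGUGCGUGCUAUGAA) and the mature tRNA-Met starting GGCUACGUAGCUCAGUUGG. Two technical replicates are averaged.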

[1] = fraction of substrate reacted: ~9-10% (9.79% repeat 1, 9.1% repeat 2)
[2] = fraction of substrate reacted: ~13-16% (15.68% repeat 1, 13.17% repeat 2)
[3] = fraction of substrate reacted: ~26-29% (28.66% repeat 1, 26.4% repeat 2)

Row | Sequence | relative kcat/Km [1] | relative kcat/Km [2] | relative kcat/Km [3]
1 | TGCCAA | 3.18 ± 1.1 | 2.55 ± 0.62 | 4.09 ± 1
2 | CCGAAC | 1.62 ± 0.75 | 2.83 ± 1.4 | 4.03 ± 1.8
3 | TCTACC | 1.9 ± 0.076 | 1.85 ± 0.06 | 2.5 ± 0.46
4 | AAGAGA | 2.62 ± 1.4 | 1.51 ± 0.84 | 2.52 ± 0.37
5 | TACGTG | – | – | 1.61 ± 0.11
6 | TTGCGC | 1.02 ± 0.65 | 1.52 ± 0.27 | 1.65 ± 0.45
7 | TCCTGG | 0.344 ± 0.27 | 0.715 ± 0.34 | 1.15 ± 1.1
8 | TTCTCT | 4.43 ± 1.1 | 6.17 ± 1.4 | 8.57 ± 3.4
9 | AAGATC | 1.45 ± 0.21 | 1.835 ± 0.012 | 1.78 ± 0.69
10 | AACTCA | 2.48 ± 0.46 | 2.81 ± 0.56 | 4.08 ± 1.8
11 | GTGCTT | 1.55 ± 0.22 | 1.02 ± 0.63 | 1.27 ± 0.21
12 | CGGTCT | – | 1.03 ± 0.31 | 0.898 ± 0.63
13 | TCGATG | – | 0.916 ± 0.4 | 3.29 ± 0.25
14 | TCCCTC | 3.19 ± 1.3 | 3.57 ± 0.32 | 5.01 ± 1.9
15 | AGGGAT | 0.949 ± 0.63 | – | –
16 | CGATGC | 2.88 ± 0.51 | 2.7 ± 1.8 | 4.03 ± 1.4
17 | CAAGGA | – | – | 0.779 ± 0.36
18 | GGTGCA | – | – | 0.609 ± 0.051
19 | TATCGG | – | 0.363 ± 0.061 | 1.3 ± 0.3
20 | AACACC | 3.17 ± 1.4 | 2.94 ± 0.64 | 4.21 ± 1.6
21 | GGGCCG | – | – | 0.42 ± 0.31
22 | TCCCAG | 2.48 ± 1.3 | 2.06 ± 0.1 | 4.74 ± 1.4
23 | CTTAAT | 2.56 ± 0.13 | 3.41 ± 0.8 | 5.38 ± 2.6
24 | AATGCT | 1.63 ± 1.4 | 0.886 ± 0.5 | 0.983 ± 0.32
25 | TTTACA | 2.51 ± 2.2 | 2.41 ± 0.58 | 2.93 ± 0.91
26 | CATTGC | 3.51 ± 1.1 | 4.2 ± 0.93 | 5.82 ± 2.3
27 | GTGACA | 0.872 ± 0.022 | 1.16 ± 0.38 | 1.53 ± 0.48

Row | Sequence | relative kcat/Km [1] | relative kcat/Km [2] | relative kcat/Km [3]
28 | CTGTAC | 3.93 ± 2.2 | 3.656 ± 0.015 | 4.79 ± 1.1
29 | TTACGC | 2.51 ± 0.4 | 3.25 ± 1.1 | 4.77 ± 2
30 | CTCATC | 3.63 ± 1 | 4.57 ± 0.43 | 6.8 ± 2.4
31 | CACGCT | 1.83 ± 0.24 | 2.25 ± 0.6 | 3.03 ± 0.94
32 | GTTGGA | 0.956 ± 0.25 | 2 ± 0.62 | –
33 | GCCTCC | 2.78 ± 1.2 | 3.32 ± 0.14 | 5.33 ± 1.8
34 | TGGACG | – | – | 0.596 ± 0.049
35 | ATGCGC | 0.675 ± 0.15 | 0.791 ± 0.3 | 1.11 ± 0.2
36 | GGACCG | – | – | 0.612 ± 0.45
37 | AAGCTA | 1.69 ± 0.35 | 1.593 ± 0.002 | 1.38 ± 0.4
38 | GGCCAA | 2.48 ± 1.8 | 1.68 ± 0.33 | 3.18 ± 0.54
39 | AATCTT | 1.82 ± 0.87 | 1.44 ± 0.29 | 2.29 ± 0.94
40 | CATCAG | 2.04 ± 1.4 | 1.57 ± 0.73 | 2.82 ± 0.74
41 | CCTGCC | 1.89 ± 0.58 | 1.842 ± 0.015 | 2.36 ± 1.3
42 | TCTTGT | 0.68 ± 0.17 | 1.94 ± 1.8 | 2.42 ± 2.2
43 | CTCTCT | 4.48 ± 1 | 4.84 ± 1.6 | 7.22 ± 3
44 | TCTATT | 1.94 ± 0.36 | 2.368 ± 0.0098 | 3.51 ± 1.6
45 | GCCTTG | – | 0.203 ± 0.08 | 1.62 ± 0.39
46 | TATCCG | – | – | 1.17 ± 0.061
47 | ATGTTT | 2.04 ± 0.38 | 1.82 ± 0.24 | 2.49 ± 0.97
48 | TAGCAG | – | – | 2.36 ± 0.19
49 | CTCGCA | 4.01 ± 1.4 | 4.94 ± 0.48 | 6.71 ± 2.1
50 | GATAGT | 0.65 ± 0.31 | – | –
51 | GCATTG | – | – | 1.07 ± 0.15
52 | ACGTAC | 3.38 ± 1.4 | 4.04 ± 0.39 | 5.9 ± 2
53 | TTTGAT | 0.799 ± 0.12 | 1.01 ± 0.025 | 1.39 ± 0.26
54 | CAATGA | 2.38 ± 0.82 | 2.67 ± 0.87 | 4.37 ± 1.6

Reference: the supplement of paper PMC9433436
